Data from PubChem BioAssay AID1508642 (National Center for Advancing Translational Sciences (NCATS), 2021).
Among all 43,000 compounds or so, about 200 (0.47%) were called active. Not shown: some 12% with an inconclusive outcome. The call rests on the fitted dose curve; in most records, active means well fitted cell-killing curve with a large enough effect; inconclusive means small, poorly fitted or top-dose-only effect, or effect the other way; inactive means flat fitted curve, though single readings scatter. Some of the results follow.

Assay: Cell viability qHTS assay in S16 Pmp22-F2sN cells; further: nearly all actives have a fitted effect of over 65% in size
Details: S16 Pmp22-F2sN Schwann cells viability, CellTiter-Glo, 24 h; series mostly up to 57.5 µM; activity change, negative = cytotoxicity: at the top concentration
Summary of the method: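 S16 Pmp22-F2sN Schwann cells (500-1,000/well) in phenol-red-free DMEM with 10% FBS received 23 nL compound by pin tool for 24 h at 37 °C. Viability was then read as CellTiter-Glo luminescence after 15 min at room temperature.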
On the % scale 0 is the no-effect control and ±100 the full control effect.

Compound	activity change, negative = cytotoxicity
COc1cccc(-n2ccnc2SCC(=O)Nc2cccc(C)c2C)c1	inactive: 7.87%
COc1ccc(-n2ncc(C(=O)NCc3ccccc3)c2C2CCN(C(=O)OC(C)(C)C)CC2)cc1	inactive: -22.8%
CCc1ccc(NC(=O)Cn2cnc3sc(C)c(S(=O)(=O)N4CCC(C)CC4)c3c2=O)cc1	inactive: -9.13%
CCCC(=O)NCC(c1ccc2c(c1)OCO2)N1CCN(c2ccc(F)cc2)CC1 (stereo unspecified)	inactive: -0.238%
O=c1c2c3c(sc2nnn1Cc1ccc(Br)cc1)CCCC3	inactive: 4.16%
CCOc1ccccc1NC(=O)Cn1c(=O)ccc2cc(S(=O)(=O)N3CCC(C)CC3)ccc21	inactive: -12.2%
CCOC(=O)c1ccc(NC(=O)CCc2c(C)nc3c(c(C)nn3C)c2C)cc1	inactive: 4.41%
CC(=O)c1ccc(N2CCN(C(=O)C3CCN(S(=O)(=O)c4cccc5nonc45)CC3)CC2)cc1	inactive: 3.47%
O=C(c1cc2ccccc2oc1=O)N(Cc1cccc(Cl)c1)C1CCS(=O)(=O)C1 (stereo unspecified)	inactive: 1.71%
CCOC(=O)C1CCN(C(=O)C2COc3ccccc3C2)CC1 (stereo unspecified)	inactive: -1.22%
Cc1ccc(OCCCn2c(C3CC(=O)N(c4cccc(Cl)c4)C3)nc3ccccc32)c(C)c1 (stereo unspecified)	inactive: -12.3%
CCOc1ccc(CNC(=O)c2ccc3nc(Cc4ccc(OC)cc4)oc3c2)cc1OC	inactive: -9.03%
CCOC(=O)c1ccc(NC(=O)CC2C(=O)N(c3ccccc3)C(=O)N2Cc2cccs2)cc1 (stereo unspecified)	inactive: -1.44%
Cc1ccc2c(CNCCc3ccc(Cl)cc3)c(C(=O)O)n(Cc3ccc(F)cc3)c2c1	inactive: -1.86%
COc1ccc(N2CCN(CC(O)COc3ccc(C(C)(C)C)cc3)CC2)cc1 (stereo unspecified)	inactive: 0.658%
Cc1ccc(S(=O)(=O)c2[nH]c(-c3ccccc3)nc2SCC(=O)O)cc1	inactive: -2.58%
CC(C)Cc1nn2c(=O)cc(COC(=O)c3ccc(NC(=O)c4cccs4)cc3)nc2s1	inactive: -1.17%
CCN(C(=O)Cc1c(C(=O)O)[nH]c2ccccc12)c1ccc(OC)cc1	inactive: -4.27%
Cc1ccc(Cl)cc1NC(=O)c1ccc(-c2nc(CSc3ccccc3)c(C)o2)cc1	inactive: -25.4%
CCc1ccc(CN(C(=O)c2nc(SC)ncc2Cl)C2CCS(=O)(=O)C2)cc1 (stereo unspecified)	inactive: -4.35%
CCC(=O)N1c2ccccc2CC1C(=O)N1CCN(c2ccccc2)CC1 (stereo unspecified)	inactive: 9.45%
Cc1noc(-c2ccccc2OCC(=O)Nc2cccc([N+](=O)[O-])c2)n1	inactive: 12%
Cc1ccccc1NC(=O)CC1C(=O)NCCN1C(=O)c1cccc(Cl)c1 (stereo unspecified)	inactive: 17.4%
COC(=O)CCc1sc(Nc2ccc(OC)cc2)nc1-c1ccc(OC)cc1	inactive: 7.09%

Compound	activity change, negative = cytotoxicity
CC(=O)c1ccc(N2CCN(C(=O)NCc3noc4ccc(C)cc34)CC2)cc1	inactive: 1.68%
CCOC(=O)c1ccccc1NC(=O)CSc1nc2ncccc2[nH]1	inactive: 9.17%
CCN1c2ccccc2-c2nc(SCC(=O)Nc3ccc(C)c(Cl)c3)ncc2S1(=O)=O	inactive: 1.77%
COc1ccc(N2CCN(C(=O)CCS(=O)(=O)c3cc4c(cc3Cl)NC(=O)CO4)CC2)cc1	inactive: 15%
CC(=O)c1cc(C(=O)Nc2cccc(C)c2)c2ccccn12	inactive: 6.27%
COc1ccc(-c2nnn3c2nc(N2CCCC(C)C2)c2ccccc23)cc1 (stereo unspecified)	inactive: 3.54%
Cc1ccc(C)c(N(C)C(=O)C2CCN(S(=O)(=O)c3cccc4nsnc34)CC2)c1	inactive: 1.08%
CCOC(=O)C1CCCN(S(=O)(=O)c2ccc3[nH]c(=O)ccc3c2)C1 (stereo unspecified)	inactive: -0.23%
Cc1ccc(S(=O)(=O)NCc2nc3nc(C)cc(C)n3n2)c(C)c1	inactive: -0.751%
Cc1ccc(NC(=O)c2cc(S(=O)(=O)N3CCOCC3)c(Cl)cc2Cl)cc1	inactive: -13%
COCCNC(=O)CCC(=O)NNc1nc2ccccc2c2nc(-c3ccccc3)nn12	inactive: 14.4%
Clc1ccccc1-c1nc(Nc2ccccc2)nc2ccc(Br)cc12	inactive: -1.51%
CCOc1ccc(NC(=O)CSc2ncc3c(n2)-c2ccccc2N(C)S3(=O)=O)cc1	inactive: 10.5%
CCc1ccc(CNC(=O)c2ccc(CSc3nc4ccncc4n3Cc3ccccc3)cc2)cc1	inactive: -20.8%
CCC(Oc1ccccc1)C(=O)Nc1nnc(S(=O)(=O)Nc2ccccc2)s1 (stereo unspecified)	inactive: -2.03%
Cc1cc(C)cc(NC(=O)C2CCN(S(=O)(=O)c3cccc4nonc34)CC2)c1	inactive: 1.85%
COc1ccc(CNC(=O)Nc2cn(CC(C)C)c(=O)c3ccccc23)c(OC)c1	inactive: -4.81%
Cc1oc2cc3oc(=O)c(CC(=O)NCc4ccccc4)c(C)c3cc2c1C	inactive: 0.206%
Cc1ccc(-n2c(=O)c3sc4ccccc4c3n(C)c2=O)cc1F	inactive: 0.649%
COc1cccc(NC(=O)c2oc3ccccc3c2NC(=O)c2ccc(F)c(F)c2)c1	inactive: -1.86%
O=C(CSc1nc2nccnc2c(=O)n1CCc1c[nH]c2ccccc12)Nc1ccccc1	inactive: 9.37%
O=C(NC1CC(=O)N(c2ccccc2)C1)C(c1ccccc1)c1ccccc1 (stereo unspecified)	inactive: -0.96%
COC(=O)c1c(NC(=O)/C(C#N)=C/c2ccc(OC)cc2)sc2c1CCC2	inactive: 0.728%
CCc1ccc(C(=O)c2cn(CC(=O)Nc3cc(OC)ccc3OC)c3nc(C)ccc3c2=O)cc1	inactive: -17.2%

Compound	activity change, negative = cytotoxicity
Cc1ccc(C(=O)N2CCCCC2)cc1NC(=O)c1nsc2ccccc12	inactive: 3.22%
Cc1c(CCNC(=O)c2ccc(Br)o2)sc2nc(-c3ccc(Cl)cc3)nn12	inactive: -23.1%
COc1ccc(S(=O)(=O)N2CCC(N3CCN(Cc4ccc(F)cc4)C(=O)C3=O)CC2)cc1	inactive: -0.213%
COc1ccc(C(CNC(=O)c2ccc(F)cc2)N2CCCC2)cc1 (stereo unspecified)	inactive: 5.2%
Cn1c(=O)c2c(nc(SCC(=O)Nc3ccc(F)cc3)n2Cc2ccccc2F)n(C)c1=O	inactive: 3.48%
CCCSc1ncc(Cl)c(C(=O)Nc2c(C(=O)c3ccc(C)cc3)oc3ccccc23)n1	inactive: 0.485%
CCC(=O)N1c2ccc(S(=O)(=O)CCC(=O)N3CCN(c4cc(C)ccc4C)CC3)cc2CC1C (stereo unspecified)	inactive: -11.7%
CCOc1ccc2nc(NC(=O)c3nc(SCc4ccccc4C)ncc3Cl)sc2c1	inactive: 2.18%
CC(C)CN1CCc2nc(Nc3ccc(F)cc3F)ncc2C1	inactive: -1.03%
O=C(Cc1cccs1)Nc1c(C(=O)Nc2ccc(F)cc2)oc2ccccc12	inactive: 3.93%
COc1cc(/C=C(\C#N)c2nc3ccccc3[nH]2)ccc1OCc1ccccc1F	inactive: 4.65%
COc1ccc(-n2c(SCC(N)=O)nc3c(oc4ccccc43)c2=O)cc1	inactive: 16.8%
Cc1ccc(-c2onc(C)c2C)cc1S(=O)(=O)N1CCOc2ccc(Cl)cc21	inactive: -1.96%
CC(C)(C)OC(=O)N1CCc2nc(N3CCN(c4ncccn4)CC3)ncc2C1	inactive: 0.142%
COc1ccc(CCC(=O)NCc2ccc3c(c2)CCN3C(=O)c2ccccc2)cc1	inactive: 3.87%
COc1c(Cl)cc(C(=O)N(Cc2ccccc2F)C2CCS(=O)(=O)C2)cc1Cl (stereo unspecified)	inactive: 0.164%
CCC(Sc1nc(-c2ccc(F)cc2)nc2c1Cc1c(CO)cnc(C)c1O2)C(=O)Nc1ccc(F)cc1 (stereo unspecified)	inactive: 2.79%
CCOc1ccc(CCNC(=O)c2cc3c(=O)n(CC)c4ccccc4c3s2)cc1OCC	inactive: 11.5%
CCc1cccc(NC(=O)CSc2nncn3c2cc2sccc23)c1	inactive: -0.262%
COc1ccc(N2CCN(c3ccc(-c4nc(-c5ccccc5)no4)cc3[N+](=O)[O-])CC2)cc1	inactive: 9.02%
COc1cc2[nH]c(=O)n(Cc3ccc(C(=O)N4CCN(c5ccc(Cl)cc5)CC4)cc3)c(=O)c2cc1OC	inactive: -9.25%
O=C(Nc1cccc(Cl)c1Cl)c1ccc2c(c1)N(Cc1cccc(Cl)c1)C(=O)c1ccccc1S2=O (stereo unspecified)	inactive: 2.24%
Cc1ccc(N(Cc2cccs2)C(=O)C(C)Oc2ccc(Cl)c(C)c2)cc1 (stereo unspecified)	inactive: -20%
Cc1ccc(C)c(NC(=O)Cn2nc(C)c3nn(-c4ccc(Cl)cc4)c(C)c3c2=O)c1	inactive: -1.66%

Compound	activity change, negative = cytotoxicity
COc1ccc(CNC(=O)CCS(=O)(=O)c2cc(Br)cc3c2N(C(C)=O)C(C)C3)cc1 (stereo unspecified)	inactive: 9.81%
Cn1cnc(S(=O)(=O)N2CCCC(C(=O)NCc3ccc(Cl)cc3)C2)c1 (stereo unspecified)	inactive: 8.57%
CCN(CC)S(=O)(=O)c1ccc2c(c1)N(CC(=O)N1CCN(c3ccc(OC)cc3)CC1)C(=O)CO2	inactive: 11.1%
Cc1ccccc1Nc1c(-c2cccc(Cl)c2)nc2ncccn12	inactive: 4.67%
COc1ccc(S(=O)(=O)NCCSc2nnnn2-c2ccccc2)cc1OC	inactive: -22.7%
CCN(Cc1ccccc1)C(=O)c1cc(-c2ccccc2)n[nH]1	inactive: -6.75%
Cc1ccc(Cl)cc1N1CCN(C(=O)CN2C(=O)COc3ccc(S(=O)(=O)N4CCCCCC4)cc32)CC1	inactive: -4.42%
CC(C)CCNC(=O)c1ccc2c(c1)NC(=O)C(C(C)C)N2 (stereo unspecified)	inactive: 13.4%
COc1cccc(C2C(C(=O)Nc3ccc(Cl)cc3)=C(C)Nc3nc4ccccc4n32)c1OC (stereo unspecified)	inactive: -2.7%
CC(=O)N1CCCc2cc(S(=O)(=O)N3CCN(c4ccccc4F)CC3)ccc21	inactive: -7.75%
CCCCNC(=O)c1c(-c2ccccc2)c(-c2ccccc2)nn(C)c1=O	inactive: 1.3%
Cc1oc2ncn(CC(C)C)c(=O)c2c1C(=O)N(CCN(C)C)Cc1ccccc1	inactive: 5.63%
Cc1ccc2c(c1)N(C(=O)N1CCC(C(=O)NCc3ccccc3C)CC1)CC(C)O2 (stereo unspecified)	inactive: -5.51%
CCCCNC(=O)c1ccc2c(c1)N(CC)C(=O)c1ccccc1S2	inactive: -1.71%
CCNC(=O)c1c(NC(=O)Cc2coc3ccc(CC)cc23)sc2c1CCCC2	inactive: 8.26%
CCCCNC(=O)CN1C(=O)c2cccnc2Sc2ccccc21	inactive: 9.28%
CC1=C(C(=O)Nc2cccnc2)C(c2cccc(F)c2)n2nc(SCc3ccccc3F)nc2N1 (stereo unspecified)	inactive: 14.7%
COc1ccc(C)cc1NC(=O)c1cc(S(=O)(=O)N2CCOCC2)cn1C	inactive: 10.3%
O=C(CSc1nc(=O)[nH]c2c1CCCC2)NCc1ccccc1Cl	inactive: 2.29%
CC(=O)N1c2ccc(S(=O)(=O)NCc3ccccc3Cl)cc2CC1C (stereo unspecified)	inactive: -9.05%
CCOC(=O)c1c(C)n(-c2ccccc2)c2ccc(OC(=O)COc3ccccc3)cc12	inactive: -1.09%
COc1ccc(N2CCN(C(=O)C3CCCN(C(=O)c4cc5sccc5n4C)C3)CC2)cc1 (stereo unspecified)	inactive: 9.05%
O=C(COc1ccc2ccccc2c1)NC1CC(=O)N(c2ccc(F)cc2)C1 (stereo unspecified)	inactive: 1.58%
Cc1ccccc1CN1c2ccccc2-c2nc(SCC(=O)c3ccccc3)ncc2S1(=O)=O	inactive: -2.24%
